Results on 115 sequences are retold here after the BET-seq Pho4 binding data (Le et al. 2018).

Some of the results follow. These are noisy estimates, calculated here from bound and input reads.

This assay has as its target T1, Pho4 (S. cerevisiae) (UniProt P07270).
T1 sequence: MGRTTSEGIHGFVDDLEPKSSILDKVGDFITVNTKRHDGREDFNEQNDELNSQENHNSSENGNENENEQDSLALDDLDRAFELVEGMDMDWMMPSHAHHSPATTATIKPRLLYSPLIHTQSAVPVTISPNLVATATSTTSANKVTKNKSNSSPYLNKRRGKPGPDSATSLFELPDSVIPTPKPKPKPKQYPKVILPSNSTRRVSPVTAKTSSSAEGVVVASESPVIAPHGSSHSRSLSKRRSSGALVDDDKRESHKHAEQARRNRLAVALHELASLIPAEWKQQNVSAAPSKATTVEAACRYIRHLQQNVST
The assay can be described thus: relative binding free energy (BET-seq); higher = weaker binding. To be noted: reference: library average.
For the sequence TAGTTCACGTGTGGAT, the “relative binding free energy” value stood at 0.33 kcal/mol.
The result for AGTGCCACGTGGTGTT reads -0.22 kcal/mol.
To TGGGGCACGTGGTCTT belongs -0.23 kcal/mol; to TTGGTCACGTGCAATA, 0.2 kcal/mol; to TGCGTCACGTGGGGGC, 0.01 kcal/mol.
The result for GTTATCACGTGTAGCG reads 0.3 kcal/mol; that for TATTGCACGTGAATGA, 0.19 kcal/mol; that for TCAAGCACGTGTGAGG, 0 kcal/mol.
As for GTTGACACGTGCGTTT, the “relative binding free energy” value is -0.01 kcal/mol.
Regarding GAGTCCACGTGTGATG, the “relative binding free energy” value was found to be 0.35 kcal/mol.
On to CGGTACACGTGGTGAT, for which the “relative binding free energy” value is 0.01 kcal/mol.
With TTATTCACGTGTTTGT, the “relative binding free energy” value stood at 0.25 kcal/mol.
As for GCATTCACGTGTTGGG, the “relative binding free energy” value stood at 0.29 kcal/mol.
The result for CATTTCACGTGTTGAG reads 0.35 kcal/mol; that for CTTGACACGTGTGGGG, 0.06 kcal/mol; that for TTAATCACGTGGTACG, 0.13 kcal/mol.
The result for TGAATCACGTGAGGTG reads 0.32 kcal/mol; that for TAAGTCACGTGTAAAT, 0.27 kcal/mol.
Turning to TTTTACACGTGCGTTC, the “relative binding free energy” value worked out at 0.09 kcal/mol.
For the sequence TGATGCACGTGTGCAT, the “relative binding free energy” value is -0.07 kcal/mol.
Regarding TGGTACACGTGAATAT, the “relative binding free energy” value came out at 0.27 kcal/mol.
To TCCTTCACGTGTGGGT belongs 0.27 kcal/mol.
To AGTGCCACGTGTGATA belongs -0.02 kcal/mol.
Take GTTGGCACGTGATAAT: the “relative binding free energy” value amounted to 0.04 kcal/mol.
On to GCGTTCACGTGGTAGG, for which the “relative binding free energy” value came to 0.21 kcal/mol.
For the sequence AAGTGCACGTGCTGCG, the “relative binding free energy” value was -0.05 kcal/mol.
Take ATCTTCACGTGATGTG: the “relative binding free energy” value came to 0.46 kcal/mol.
The result for TCGGACACGTGGAGGC reads 0.1 kcal/mol.
In the case of TTAGTCACGTGGAGGA, the “relative binding free energy” value is 0.19 kcal/mol.
To GCTGTCACGTGGTAGT belongs 0.01 kcal/mol.
To TCAGGCACGTGGTGGA belongs -0.17 kcal/mol; to GATTACACGTGGCGGA, 0.29 kcal/mol; to TATTACACGTGGAGTA, 0.27 kcal/mol.
The result for CGGCTCACGTGTTTGG reads 0.11 kcal/mol; that for TAACTCACGTGTAGTG, 0.16 kcal/mol.
TTAGGCACGTGTCAAT: the “relative binding free energy” value was -0.12 kcal/mol.
The result for CCTGACACGTGTGGGG reads 0.05 kcal/mol.
Consider AGATGCACGTGATATT, for which the “relative binding free energy” value stood at 0.17 kcal/mol.
For the sequence ATTTTCACGTGCTGAT, the “relative binding free energy” value was found to be 0.13 kcal/mol.
To GGTGTCACGTGGTACG belongs -0.02 kcal/mol.
As to TCTAACACGTGGTGTG, the “relative binding free energy” value is -0.1 kcal/mol.
The result for GAGAACACGTGGTGGT reads 0.05 kcal/mol.
Take CAAGTCACGTGAGGGT: the “relative binding free energy” value came out at 0.39 kcal/mol.
To TGTGCCACGTGGTTTT belongs -0.11 kcal/mol.
The result for TCATTCACGTGAGGGA reads 0.35 kcal/mol.
The result for CTGTTCACGTGTTAAG reads 0.14 kcal/mol.
Turning to GTGTACACGTGTCAGT, the “relative binding free energy” value is -0.09 kcal/mol.
In the case of GCGTGCACGTGAGGCG, the “relative binding free energy” value was 0.22 kcal/mol.
Take AGAATCACGTGTGCGG: the “relative binding free energy” value was determined as 0.2 kcal/mol.
On to GTAGTCACGTGGGCTA, for which the “relative binding free energy” value was 0.06 kcal/mol.
Consider AGTGCCACGTGCTGGG, for which the “relative binding free energy” value was -0.12 kcal/mol.
To CGGTGCACGTGAGCGA belongs 0.26 kcal/mol; to TGCGACACGTGATATG, 0.15 kcal/mol.
Take GGGCGCACGTGTTGCT: the “relative binding free energy” value is -0.09 kcal/mol.
To TTGAGCACGTGGTGGT belongs -0.12 kcal/mol.
With AGGGACACGTGTTGTT, the “relative binding free energy” value was determined as 0.01 kcal/mol.
The result for GAGGTCACGTGGCAGG reads 0.14 kcal/mol; that for ACGGTCACGTGGGATA, 0.06 kcal/mol.
In the case of GGGGGCACGTGAGTTG, the “relative binding free energy” value was 0.13 kcal/mol.
As for ATTGCCACGTGGGAAT, the “relative binding free energy” value was -0.1 kcal/mol.
Take CCTTGCACGTGGGGTG: the “relative binding free energy” value was -0.28 kcal/mol.
The result for AGGTACACGTGAATAT reads 0.37 kcal/mol; that for ACGAGCACGTGCTGGG, 0.02 kcal/mol.
GCGGTCACGTGTTGAG: the “relative binding free energy” value worked out at 0.14 kcal/mol.
As for ATGAGCACGTGGAGAT, the “relative binding free energy” value is -0.14 kcal/mol.
To GGTGACACGTGATATT belongs 0.2 kcal/mol; to TTTGACACGTGCATGT, -0.04 kcal/mol.
As for AAGGCCACGTGGGTGG, the “relative binding free energy” value is -0.34 kcal/mol.
As to TCTGGCACGTGTTAGG, the “relative binding free energy” value was -0.05 kcal/mol.
As to AATGGCACGTGTGCGG, the “relative binding free energy” value was -0.11 kcal/mol.
To TAGATCACGTGTTGTA belongs 0.05 kcal/mol; to AATGTCACGTGATTTG, 0.24 kcal/mol.
The result for TGTATCACGTGCGTTC reads 0.08 kcal/mol; that for TTGGGCACGTGACGTA, -0.05 kcal/mol.
TTAATCACGTGGCTGA: the “relative binding free energy” value was determined as 0.15 kcal/mol.
Consider TTGGTCACGTGGAATC, for which the “relative binding free energy” value turned out to be 0.27 kcal/mol.
On to CCGTTCACGTGAGGGG, for which the “relative binding free energy” value was 0.39 kcal/mol.
TCGGTCACGTGATGAG: the “relative binding free energy” value was 0.23 kcal/mol.
To AATTACACGTGGATGT belongs 0.09 kcal/mol; to GGGTGCACGTGGGTTG, -0.14 kcal/mol.
Regarding TTTTGCACGTGTAGAT, the “relative binding free energy” value came out at 0.19 kcal/mol.
The result for TTGAACACGTGAATAT reads 0.24 kcal/mol; that for GTTTGCACGTGGGTAC, -0.09 kcal/mol.
To AATAACACGTGTTGGA belongs -0.09 kcal/mol; to TATAGCACGTGTAATT, 0.05 kcal/mol.
For CAGAGCACGTGTTTGG, the “relative binding free energy” value worked out at 0.02 kcal/mol.
On to GTTTACACGTGTTTAA, for which the “relative binding free energy” value came out at 0.26 kcal/mol.
To TTTAGCACGTGTCTAG belongs -0.21 kcal/mol.
The result for TGGTGCACGTGTAATC reads 0.15 kcal/mol.
The result for TGTATCACGTGCAGTG reads 0.14 kcal/mol.
Regarding ATTCGCACGTGATGTG, the “relative binding free energy” value was found to be 0.14 kcal/mol.
To TGGTGCACGTGAAACG belongs 0.07 kcal/mol; to AGTGACACGTGAGTGA, 0.13 kcal/mol; to TTGTTCACGTGTCATT, 0.22 kcal/mol.
The result for GCGAACACGTGTGTGT reads -0.03 kcal/mol.
The result for CGAGACACGTGGGTGG reads -0.11 kcal/mol; that for GACGTCACGTGGTCGT, 0.1 kcal/mol; that for TAGGGCACGTGGCTCG, -0.12 kcal/mol.
As for GGTAACACGTGGATGT, the “relative binding free energy” value was -0.01 kcal/mol.
Turning to CGTTGCACGTGTTGGG, the “relative binding free energy” value amounted to 0.06 kcal/mol.
The result for TTAGACACGTGAGTAG reads 0.12 kcal/mol; that for GTACGCACGTGTAGTG, 0.03 kcal/mol.
For the sequence TATTGCACGTGGTAGA, the “relative binding free energy” value is -0.03 kcal/mol.
To ATTGACACGTGTATTA belongs 0.15 kcal/mol; to TTGAGCACGTGTGGAT, 0.02 kcal/mol; to TTAAGCACGTGAGGGC, 0.18 kcal/mol.
Consider TCTGGCACGTGTGATT, for which the “relative binding free energy” value stood at 0.16 kcal/mol.
As for GCAAACACGTGTGGTG, the “relative binding free energy” value came out at 0.07 kcal/mol.
To GGTAACACGTGGATTG belongs -0.12 kcal/mol; to AGTAGCACGTGATGCG, 0.16 kcal/mol.
Turning to GTTGGCACGTGTCTAA, the “relative binding free energy” value was 0.17 kcal/mol.
The result for GGTTTCACGTGAACGT reads 0.39 kcal/mol; that for GTAGACACGTGAGAGG, 0.32 kcal/mol.
To AATGACACGTGAGTAT belongs 0.33 kcal/mol; to GGTGTCACGTGAGCGT, 0.26 kcal/mol.
